We go through 20 sequences from the supplement of paper PMC10338343.

± gives the standard deviation. The list shows a part of the results, in another mix than the full data.

The test system of this experiment is MIWI (PIWIL1) piRISC loaded with L1MC piRNA (30 nt). As to the kind of experiment: pre-steady-state target cleavage rate (min^-1); MIWI and MILI are mouse PIWI proteins and EfPiwi is from a freshwater sponge; tags in brackets are library labels; higher = faster piRNA-guided slicing of the target. The settings on record: guide: L1MC piRNA 5'p-UAACUAAAUACUAUGCAAGCUGUAGGUCCU
Summed up: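 Cleave-'n-Seq reactions paired 0.1 nM transcribed, DNA-blocked target RNA library with 1 nM active affinity-purified piRISC holding one synthetic guide, plus or minus 500 nM GTSF1 partner protein, in HEPES–potassium acetate buffer at 33 °C for 0–8 or 0–960 min. After sequencing of uncleaved targets and normalisation to depth and weakly complementary targets, the pre-steady-state cleavage rate was taken from a burst-and-steady-state fit. Three trials were pooled, and k3 was capped at 0.0001 min^-1.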

Where [1] appears, read: auxiliary factor: 500 nM mouse GTSF1.
Setting [2] is: auxiliary factor: none (no GTSF1).

Take UCCACCUACAGGUUGCAUAGAAUUUAGUUA: the “pre-steady-state target cleavage rate” value runs as follows: under setting [1], 0.327 ± 0.04; under setting [2], 0.00955 ± 0.0021.
Take UGGACCUACAGCUUGCAUUGUAUUUAGAUA: the “pre-steady-state target cleavage rate” value amounted to 0.305 ± 0.026 under setting [1] and 0.0127 ± 0.0024 under setting [2].
As for UCGACCUACAGCUUGCAUAGUAUUUAGUGA, the “pre-steady-state target cleavage rate” value under setting [1] was 0.887 ± 0.04 and the “pre-steady-state target cleavage rate” value under setting [2] was 0.0905 ± 0.019.
With UCCUGGAUCAGCUUGCAUAGUAUUAACUUA, the “pre-steady-state target cleavage rate” value was determined as 0.108 ± 0.02 under setting [1] and 0.00984 ± 0.0034 under setting [2].
For the sequence UCCACCUACAGCAUGCAUACUAUUUAGUUA, the “pre-steady-state target cleavage rate” value under setting [1] came to 0.365 ± 0.029 and the “pre-steady-state target cleavage rate” value under setting [2] was 0.0128 ± 0.0025.
Taken in the same sequence, the figures for UGGACCUACACCUUGCAUACUAUUUAGUUA were 0.244 ± 0.021 and 0.0225 ± 0.006.
The corresponding values for UCGACGAUCAGCUUGCAUAGUAUUUAGAAA are 0.494 ± 0.05 and 0.0104 ± 0.0033.
The corresponding values for AGGAGCUACAGCUUGCAUAGUAUUUAGAUA are 0.625 ± 0.079 and 0.0521 ± 0.013.
As to UCCUGGUACAGACUUGCAUAGUAUUUAGUUA, the “pre-steady-state target cleavage rate” value reads like this: under setting [1], 0.457 ± 0.073; under setting [2], 0.0228 ± 0.0055.
With UCCUGGAACAGCUUGCAAAGUAUUUAGAUA, the “pre-steady-state target cleavage rate” value runs as follows: under setting [1], 0.343 ± 0.037; under setting [2], 0.0142 ± 0.0041.
With UCCUGGAUGAGCUUGCAUAGUUUUUAGAAA, the “pre-steady-state target cleavage rate” value reads like this: under setting [1], 0.0136 ± 0.0075; under setting [2], 0.00575 ± 0.0034.
The corresponding values for UCCUCCUACAGGUUGCAUUGUAUUUAGUUA are 0.668 ± 0.04 and 0.0105 ± 0.0028.
Taken in the same sequence, the figures for UCCUCCUAGAGGUUGCAUAGUAUUUAGUUA were 0.632 ± 0.06 and 0.0102 ± 0.0017.
Taken in the same sequence, the figures for UCGACCUAGUCCUUGCAUAGUAUUUAGUUA were 0.869 ± 0.03 and 0.0219 ± 0.005.
Regarding UCGACCUACAGCUUGGAUAGUAUUUAGUAA, the “pre-steady-state target cleavage rate” value is 0.859 ± 0.043 under setting [1] and 0.0299 ± 0.0054 under setting [2].
The corresponding values for UCCUGGAUGAGCUUGCAUAGUUUUUACUUA are 0.0319 ± 0.011 and 0.00684 ± 0.0026.
UCCUGGAACAGCUAGCAUAGUAUUUAGUAA: the “pre-steady-state target cleavage rate” value is 0.639 ± 0.06 under setting [1] and 0.0137 ± 0.0038 under setting [2].
The corresponding values for UCGACCUACACCAUGCAUAGUAUUUAGUUA are 0.854 ± 0.041 and 0.0165 ± 0.0031.
Taken in the same sequence, the figures for UGGUCCUACAGCUUGCAUAGUAUUUAGUUA were 1.16 ± 0.052 and 0.0862 ± 0.015.
Taken in the same sequence, the figures for AGGACCAUGAGCUUGCAUAGUAUUUACAAA were 0.141 ± 0.03 and 0.00392 ± 0.0023.
